Measured values reported in US20130089554A1 (EMERGENT PRODUCT DEVELOPMENT SEATTLE, published 2013).

Assays:
[1] = molecular target: T1, human RON (recepteur d'origine Nantaise, MST1R), full length on cells (human, UniProt Q04912 25-1400); experiment: flow cytometry, MDA-MB-453 cells, various concentrations; binding activity comparable to murine RON-f02
T1 construct: Over-expressed on transfected NIH/3T3 cells, or native on BxPC-3 and MDA-MB-453 cells; also called native human RON
Protocol: (§1) Human pancreatic adenocarcinoma BxPC-3 cells (ATCC) were dissociated with trypsin and human breast metastatic carcinoma MDA-MB-453 cells (ATCC) were harvested manually with a rubber cell scraper. Cells were stained at 3×10⁵ cells/sample on ice with purified molecules diluted in Staining Buffer. SMIPs and Interceptors were detected with Alexa Fluor 488-conjugated goat anti-human IgG (Invitrogen). Samples were analyzed on a BD FACSCalibur flow cytometer fitted with an HTS using PlateManager and CellQuest Pro software.
(§2) Additionally, RON-e (FIG. 7a) and RON-f (FIG. 7B) humanized SMIPs bind native human RON on the surface of MDA-MB-453 cells. Various concentrations of humanized RON-e SMIP constructs RON-e07h68, RON-e08h78, RON-e09h69, RON-e10h79, RON-e11h60, RON-e12h70 and RON-f SMIP SMIP constructs RON-f07h24 and RON-f08h25 were incubated with MDA-MB_{—}453 cells and compared with murine RON-e02 and RON-f02 controls, respectively.

[2] = molecular target: T1, human RON (recepteur d'origine …); experiment: flow cytometry, MDA-MB-453 cells, various concentrations; binding activity comparable to murine RON-e02
Protocol: as §1, §2

[3] = molecular target: T2, RON Sema-PSI-AFH protein (human, UniProt Q04912 25-568); experiment: SPR (Biacore T100); SMIP captured by immobilized anti-human Fc, soluble RON Sema-PSI-AFH flowed over
T2 construct: Produced in CHOK1SV cells; also called soluble RON Sema-PSI-AFH; not shown: c-terminal tag including avidin, 3xFLAG and 6x histidine tags
T2 chain: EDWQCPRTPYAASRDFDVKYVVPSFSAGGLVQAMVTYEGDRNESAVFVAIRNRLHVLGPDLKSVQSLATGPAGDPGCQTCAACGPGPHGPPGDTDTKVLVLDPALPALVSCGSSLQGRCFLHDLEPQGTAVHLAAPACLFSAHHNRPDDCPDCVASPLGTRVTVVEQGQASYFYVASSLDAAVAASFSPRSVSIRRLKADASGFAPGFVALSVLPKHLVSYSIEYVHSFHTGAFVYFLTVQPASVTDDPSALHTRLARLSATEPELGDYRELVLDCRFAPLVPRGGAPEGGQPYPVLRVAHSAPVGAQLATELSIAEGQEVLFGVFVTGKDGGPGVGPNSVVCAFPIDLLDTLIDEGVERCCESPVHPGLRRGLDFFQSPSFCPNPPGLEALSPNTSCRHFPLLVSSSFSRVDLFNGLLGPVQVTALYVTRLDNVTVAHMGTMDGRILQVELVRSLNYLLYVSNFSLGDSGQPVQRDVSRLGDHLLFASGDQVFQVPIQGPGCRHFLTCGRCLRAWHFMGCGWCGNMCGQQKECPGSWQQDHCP
Protocol: The binding kinetics of RON-f murine antibody, SMIP and Interceptor to soluble RON Sema-PSI-AFH were determined using a Biacore T100 (GE Healthcare, Piscataway, N.J.). Anti-RON murine antibody was captured using immobilized anti-mouse Fc polyclonal antibody while the SMIP and Interceptor were captured by anti-human Fc monoclonal antibody. The capture antibodies, both from GE Healthcare, were covalently conjugated to a carboxylmethyl dextran surface (CM4) via amines using N-ethyl-N′-(3-dimethylaminopropyl)-carbodiimide hydrochloride and N-hydroxysuccinimide. The unoccupied sites of the activated surface were blocked by ethanolamine. […] During each cycle, a single concentration of soluble RON Sema-PSI-AFH was injected and then allowed to dissociate. At the end of each cycle, the surface was regenerated gently using 3M MgCl₂ which dissociates protein bound to the capture antibodies. Signal associated with binding to the reference cell was used to subtract for bulk refractive changes and blank (buffer-only) injections were used to correct for drift and system noise.
Kinetic parameters and affinities were determined using BIAevaluation software. The kₐ (M⁻¹s⁻¹) and kd (s⁻¹) rates of the interaction were used to calculate the affinity constant, KD (M), of the antibody/receptor interaction. The KD is defined as the ratio of the kd and kₐ constants (kd/kₐ). The RON-f01 murine antibody was tested in a single experiment while the RON-f02 SMIP and RON-f03 Interceptor molecules were each tested in three independent experiments. RON-f molecules were captured on a sensor chip with immobilized anti-Fc while soluble RON Sema-PSI-AFH protein was flowed over the surface at varying concentrations.

[4] = molecular target: T1, human RON (recepteur d'origine …); experiment: flow cytometry, MDA-MB-453 (RON+) cells, 100 nM to 0.1 nM
Protocol: The cells were washed three times and then incubated with goat anti-human IgG-FITC (1:200 dilution) for another 30 minutes at 4° C. The cells were then washed again three times, fixed in 1% paraformaldehyde and read on a FACS-Calibur instrument.

Binder | binding result [2] | further results
RON-f07h24 humanized 4C04 SMIP (f01h2 VL/f01h4 VH) (Fc fusion, Form without leader) DIQMTQSPSSLSASVGDRVTITCLASQTIGTWLAWYQQKPGKAPKLLIYAATSLADGVPSRFSGSGSGTDFTLTISSLQPEDFATYYCQQLYNTPWTFGGGTKVEIKGGGGSGGGGSGGGGSGGGGSEVQLVQSGAEVKKPGATVKISCKVSDYTLTDFYMNWVQQAPGKGLEWIGRIYPGTDKTRYNEKFRDRVTITADTSTDTAYMELSSLRSEDTAVYYCARSAYYGNYVAMDYWGQGTTVTVSSS[human IgG1 Fc with changes not written out] | – | binding result [1]: binds
RON-f08h25 humanized 4C04 SMIP (f01h2 VL/f01H5 VH) (Fc fusion, Form without leader) DIQMTQSPSSLSASVGDRVTITCLASQTIGTWLAWYQQKPGKAPKLLIYAATSLADGVPSRFSGSGSGTDFTLTISSLQPEDFATYYCQQLYNTPWTFGGGTKVEIKGGGGSGGGGSGGGGSGGGGSQVQLVQSGAEVKKPGSSVKVSCKASDYTLTDFYMNWVRQAPGQGLEWIGRIYPGTDKTRYNEKFRDRVTITADKSTSTAYMELSSLRSEDTAVYYCARSAYYGNYVAMDYWGQGTTVTVSSS[human IgG1 Fc with changes not written out] | – | binding result [1]: binds
RON-e07h68 humanized 11H09 SMIP (e01h6 VL/e01h8 VH) (Fc fusion, Form without leader (97 has the leader, 99 lacks the terminal lysine)) AIQLTQSPSSLSASVGDRVTITCRASQDIGSSLSWLQQKPGKAPKRLIYSTSSLDSGVPSRFSGSGSGTDFTLTISSLQPEDFATYYCLQYASSPWTFGQGTKVEIKGGGGSGGGGSGGGGSGGGGSQVQLVQSGAEVKKPGASVKVSCKASGYTFTSYWIHWVRQAPGQGLEWIGYIYPTTGYTESNQKFKDRVTMTRDTSISTAYMELSRLRSDDTAVYYCFLLRPWYFDVWGQGTTVTVSSS[human IgG1 Fc with changes not written out] | binds | –
RON-e08h78 humanized 11H09 SMIP (e01h7 VL/e01h8 VH) (Fc fusion, Form without leader) DIQMTQSPSSLSASVGDRVTITCRASQDIGSSLSWLQQKPGKAPKRLIYSTSSLDSGVPSRFSGSGSGTDYTLTISSLQPEDFATYYCLQYASSPWTFGQGTKVEIKGGGGSGGGGSGGGGSGGGGSQVQLVQSGAEVKKPGASVKVSCKASGYTFTSYWIHWVRQAPGQGLEWIGYIYPTTGYTESNQKFKDRVTMTRDTSISTAYMELSRLRSDDTAVYYCFLLRPWYFDVWGQGTTVTVSSS[human IgG1 Fc with changes not written out] | binds | –
RON-e11h60 humanized 11H09 SMIP (e01h6 VL/e01h0 VH) (Fc fusion, Form without leader) AIQLTQSPSSLSASVGDRVTITCRASQDIGSSLSWLQQKPGKAPKRLIYSTSSLDSGVPSRFSGSGSGTDFTLTISSLQPEDFATYYCLQYASSPWTFGQGTKVEIKGGGGSGGGGSGGGGSGGGGSQVQLVQSGAEVKKPGASVKVSCKASGYTFTSYWIHWVRQAPGQGLEWIGYIYPTTGYTESNQKFKDRVTMTRDTSTSTVYMELSSLRSEDTAVYYCFLLRPWYFDVWGQGTTVTVSSS[human IgG1 Fc with changes not written out] | binds | –
RON-e12h70 humanized 11H09 SMIP (e01h7 VL/e01h0 VH) (Fc fusion, Form without leader) DIQMTQSPSSLSASVGDRVTITCRASQDIGSSLSWLQQKPGKAPKRLIYSTSSLDSGVPSRFSGSGSGTDYTLTISSLQPEDFATYYCLQYASSPWTFGQGTKVEIKGGGGSGGGGSGGGGSGGGGSQVQLVQSGAEVKKPGASVKVSCKASGYTFTSYWIHWVRQAPGQGLEWIGYIYPTTGYTESNQKFKDRVTMTRDTSTSTVYMELSSLRSEDTAVYYCFLLRPWYFDVWGQGTTVTVSSS[human IgG1 Fc with changes not written out] | binds | –
RON-e10h79 humanized 11H09 SMIP (e01h7 VL/e01h9 VH) (Fc fusion, Form without leader) DIQMTQSPSSLSASVGDRVTITCRASQDIGSSLSWLQQKPGKAPKRLIYSTSSLDSGVPSRFSGSGSGTDYTLTISSLQPEDFATYYCLQYASSPWTFGQGTKVEIKGGGGSGGGGSGGGGSGGGGSQVQLVQSGAEVKKPGASVKVSCKASGYTFTSYWIHWVRQATGQGLEWIGYIYPTTGYTESNQKFKDRVTMTRNTSISTAYMELSSLRSEDTAVYYCFLLRPWYFDVWGQGTTVTVSSS[human IgG1 Fc with changes not written out] | binds | –
RON-e09h69 humanized 11H09 SMIP (e01h6 VL/e01h9 VH) (Fc fusion, Form without leader) AIQLTQSPSSLSASVGDRVTITCRASQDIGSSLSWLQQKPGKAPKRLIYSTSSLDSGVPSRFSGSGSGTDFTLTISSLQPEDFATYYCLQYASSPWTFGQGTKVEIKGGGGSGGGGSGGGGSGGGGSQVQLVQSGAEVKKPGASVKVSCKASGYTFTSYWIHWVRQATGQGLEWIGYIYPTTGYTESNQKFKDRVTMTRNTSISTAYMELSSLRSEDTAVYYCFLLRPWYFDVWGQGTTVTVSSS[human IgG1 Fc with changes not written out] | binds | –
RON-f02 4C04 murine SMIP (Fc fusion, also called RON-f02 SMIP) DIQMTQSPASQSASLGESVTITCLASQTIGTWLAWYQQKPGKSPQLLIYAATSLADGVPSRFSASGSGTKFSFKIDSLQSEDFVSYYCQQLYNTPWTFGGGTKLEIKGGGGSGGGGSGGGGSQIQLQQSGPELVKPGTSVKISCKASDYTLTDFYMNWVRQKPGQGLEWIGRIYPGTDKTRYNEKFRDKAILTVDTSSSTAYMQLSSLTSEDTAVYFCARSAYYGNYVAMDYWGQGTSVTVSSS[human IgG1 Fc with changes not written out] | – | Kd [3]: 115 pM; koff [3]: 0.0001 s⁻¹; kon [3]: 866000 M⁻¹ s⁻¹
SCORPION protein S0266 (anti-RON x anti-CD3) (bispecific antibody) DIQMTQSPASQSASLGESVTITCLASQTIGTWLAWYQQKPGKSPQLLIYAATSLADGVPSRFSASGSGTKFSFKIDSLQSEDFVSYYCQQLYNTPWTFGGGTKLEIKGGGGSGGGGSGGGGSQIQLQQSGPELVKPGTSVKISCKASDYTLTDFYMNWVRQKPGQGLEWIGRIYPGTDKTRYNEKFRDKAILTVDTSSSTAYMQLSSLTSEDTAVYFCARSAYYGNYVAMDYWGQGTSVTVSSS[human IgG1 Fc with changes not written out]RHNNSSLNTGTQMAGHSPNSEVQLQQSGPELVKPGASMKISCKASGYSFTGYIVNWLKQSHGKNLEWIGLINPYKGLTTYNQKFKGKATLTVDKSSSTAYMELLSLTSEDSAVYYCARSGYYGDSDWYFDVWGAGTTVTVSSGGGGSGGGGSGGGGSAQDIQMTQTTSSLSASLGDRVTISCRASQDIRNYLNWYQQKPDGTVKLLIYYTSRLHSGVPSRFSGSGSGTDYSLTIANLQPEDIATYFCQQGNTLPWTFGGGTKLVTKR | – | binding result [4]: binds
